Data published in publication PMC8205236.
Results are given in words; binding and its absence hold for the method and conditions named. Binding seen in cells or lysates may run through a third protein. Some results given as binding are weak or reduced against the parent protein; the word gives no strength. For some assays here: Sequences can lack the tags named with a protein.

Amino acid sequences for entries named in this document (tags omitted). Residues count along the entry.
UniProt Q9ULV1, residues 37-537: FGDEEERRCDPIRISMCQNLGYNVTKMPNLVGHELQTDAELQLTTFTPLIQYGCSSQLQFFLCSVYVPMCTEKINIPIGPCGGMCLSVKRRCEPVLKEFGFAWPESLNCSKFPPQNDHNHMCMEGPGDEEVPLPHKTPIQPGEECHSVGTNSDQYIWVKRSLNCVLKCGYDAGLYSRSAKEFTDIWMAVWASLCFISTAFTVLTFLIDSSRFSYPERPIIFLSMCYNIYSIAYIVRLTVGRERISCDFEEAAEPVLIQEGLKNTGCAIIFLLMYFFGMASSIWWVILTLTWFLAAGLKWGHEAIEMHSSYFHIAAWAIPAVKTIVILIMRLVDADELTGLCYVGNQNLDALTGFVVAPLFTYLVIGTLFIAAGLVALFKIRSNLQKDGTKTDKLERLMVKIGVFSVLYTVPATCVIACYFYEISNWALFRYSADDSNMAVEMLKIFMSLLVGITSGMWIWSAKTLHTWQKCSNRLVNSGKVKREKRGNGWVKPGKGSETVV
UniProt P27467, residues 19-352: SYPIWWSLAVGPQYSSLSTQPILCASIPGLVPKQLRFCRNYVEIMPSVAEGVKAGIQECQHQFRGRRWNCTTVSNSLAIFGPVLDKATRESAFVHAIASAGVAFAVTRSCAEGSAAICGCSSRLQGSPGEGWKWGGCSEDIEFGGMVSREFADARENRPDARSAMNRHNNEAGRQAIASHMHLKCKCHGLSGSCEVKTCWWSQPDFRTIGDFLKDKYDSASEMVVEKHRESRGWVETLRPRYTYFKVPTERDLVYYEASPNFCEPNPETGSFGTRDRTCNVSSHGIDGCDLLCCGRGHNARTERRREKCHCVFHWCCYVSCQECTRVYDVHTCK

Tests used:
[1] = biological target: T1, HiBiT-tagged human FZD3 (human) (UniProt Q9NPG1); test: FRET or BRET; NanoBiT/BRET saturation binding on live HEK293A cells (setup 1): eGFP-WNT-3A conditioned medium 16.7 pM to 16.7 nM, 5% FBS, 10 mM HEPES, 240 min at 37 °C, then LgBiT and furimazine for 10 min; one-site specific model (normalised logarithmic fits for pKd)
T1 sequence: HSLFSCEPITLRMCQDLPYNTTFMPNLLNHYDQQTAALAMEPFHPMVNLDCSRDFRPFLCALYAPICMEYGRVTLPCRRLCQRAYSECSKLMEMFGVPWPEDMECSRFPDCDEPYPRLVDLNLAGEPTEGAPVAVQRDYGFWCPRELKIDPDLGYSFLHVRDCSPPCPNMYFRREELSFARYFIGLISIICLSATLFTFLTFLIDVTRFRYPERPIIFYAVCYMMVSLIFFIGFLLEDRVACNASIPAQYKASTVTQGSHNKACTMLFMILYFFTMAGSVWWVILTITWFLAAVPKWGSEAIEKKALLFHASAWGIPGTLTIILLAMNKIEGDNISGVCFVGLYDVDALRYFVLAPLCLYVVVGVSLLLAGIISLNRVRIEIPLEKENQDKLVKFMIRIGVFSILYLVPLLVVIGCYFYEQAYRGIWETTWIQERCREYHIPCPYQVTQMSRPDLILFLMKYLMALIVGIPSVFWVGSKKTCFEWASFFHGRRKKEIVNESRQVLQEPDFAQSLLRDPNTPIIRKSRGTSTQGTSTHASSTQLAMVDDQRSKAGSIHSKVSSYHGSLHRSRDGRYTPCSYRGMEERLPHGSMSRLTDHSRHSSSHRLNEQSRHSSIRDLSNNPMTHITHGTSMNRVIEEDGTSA

[2] = biological target: T2, HiBiT-tagged human FZD9 (human) (UniProt O00144); test: as above
T2 sequence: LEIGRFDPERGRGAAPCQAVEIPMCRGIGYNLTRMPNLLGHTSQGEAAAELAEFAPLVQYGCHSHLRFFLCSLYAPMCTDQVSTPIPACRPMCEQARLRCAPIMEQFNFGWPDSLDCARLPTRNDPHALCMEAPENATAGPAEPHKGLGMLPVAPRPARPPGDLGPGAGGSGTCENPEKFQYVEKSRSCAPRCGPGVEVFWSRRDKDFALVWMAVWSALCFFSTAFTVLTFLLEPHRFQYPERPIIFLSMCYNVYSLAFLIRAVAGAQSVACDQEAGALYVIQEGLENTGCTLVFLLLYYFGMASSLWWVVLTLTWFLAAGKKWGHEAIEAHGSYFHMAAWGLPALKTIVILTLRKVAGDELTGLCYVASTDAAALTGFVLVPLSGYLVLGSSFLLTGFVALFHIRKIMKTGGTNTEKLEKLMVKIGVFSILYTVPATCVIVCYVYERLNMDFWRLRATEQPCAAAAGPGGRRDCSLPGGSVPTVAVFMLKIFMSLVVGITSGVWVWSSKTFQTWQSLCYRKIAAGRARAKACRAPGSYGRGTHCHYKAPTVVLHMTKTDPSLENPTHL

[3] = biological target: T1, HiBiT-tagged human FZD3 (human); test: FRET or BRET; NanoBiT/BRET kinetic binding on live HEK293A cells: cells preincubated 1 h with LgBiT and vivazine, then eGFP-WNT-3A conditioned medium at 2.1, 4.2 or 8.3 nM; BRET every 90 s for 240 min at 37 °C; association model with two or more hot ligand concentrations
[4] = biological target: T2, HiBiT-tagged human FZD9 (human); test: as above
[5] = biological target: HiBiT-tagged human FZD4 (human) (UniProt Q9ULV1); test: FRET or BRET; NanoBiT/BRET competition binding on live HEK293A cells: the tracer eGFP-WNT-3A (conditioned medium, 0.4 nM) on HiBiT-FZD4, 240 min at 37 °C

Which binding [1] does the source give for “eGFP-tagged mouse WNT-3A (from UniProt P27467 19-352) (ligand)” here?
Its binding is “no binding (tested: 16.7 nM)”.

What about the binding [2] of the same substance?
The binding was “no binding (tested: 16.7 nM)”.

What about the binding [3] of the same substance?
Its binding is “no binding (tested: 8.3 nM)”.

And the binding [4]?
The binding was “no binding (tested: 8.3 nM)”.

What about the binding [5] of the same substance?
The binding was “binds”.
